Like-named read-outs stand apart in the source and are kept apart here. Results are given in words; binding and its absence hold for the method and conditions named. For some assays here: In cells and extracts the contact can be indirect. Some entries that bind do so weakly or less than the wild type. For some assays here: Sequences can lack the tags named with a protein. Values belong to the molecule of their own block, whether it stands above or below them.
Assays:
[1] = molecular target: T1, Fkh1 (endogenous, yeast cell extract) (S. cerevisiae (endogenous in W303-derived yeast)) (UniProt P40466); assay: co-IP; yeast cell extracts in CoIP buffer (50 mM HEPES pH 7.5, 140 mM NaCl, 1 mM EDTA, 1% TX-100); precipitated with Protein A sepharose-linked anti-Fkh1 antibodies, blotted with anti-FLAG or anti-Fkh1
T1 sequence: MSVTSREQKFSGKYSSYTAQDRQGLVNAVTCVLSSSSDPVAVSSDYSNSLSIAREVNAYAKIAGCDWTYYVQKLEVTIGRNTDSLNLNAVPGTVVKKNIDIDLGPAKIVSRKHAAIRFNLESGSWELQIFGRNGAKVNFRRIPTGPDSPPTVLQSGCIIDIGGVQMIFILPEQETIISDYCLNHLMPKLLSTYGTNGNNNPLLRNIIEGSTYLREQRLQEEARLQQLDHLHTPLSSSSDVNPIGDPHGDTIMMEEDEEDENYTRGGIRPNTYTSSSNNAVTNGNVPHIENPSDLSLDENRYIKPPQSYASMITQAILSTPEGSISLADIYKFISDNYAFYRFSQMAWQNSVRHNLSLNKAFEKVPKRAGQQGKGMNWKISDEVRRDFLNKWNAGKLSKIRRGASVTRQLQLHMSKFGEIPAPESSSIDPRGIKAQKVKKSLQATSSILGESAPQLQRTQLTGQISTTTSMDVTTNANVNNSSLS

Chains of the proteins cited; added tags and fusions are not shown. Lines headed by an entry give the natural chain unless they say otherwise; changes in a name come on top. A line that says so, or that is headed by a name, gives the form on record, which may keep a tag or linker. Residues count along the entry.
UniProt P40562: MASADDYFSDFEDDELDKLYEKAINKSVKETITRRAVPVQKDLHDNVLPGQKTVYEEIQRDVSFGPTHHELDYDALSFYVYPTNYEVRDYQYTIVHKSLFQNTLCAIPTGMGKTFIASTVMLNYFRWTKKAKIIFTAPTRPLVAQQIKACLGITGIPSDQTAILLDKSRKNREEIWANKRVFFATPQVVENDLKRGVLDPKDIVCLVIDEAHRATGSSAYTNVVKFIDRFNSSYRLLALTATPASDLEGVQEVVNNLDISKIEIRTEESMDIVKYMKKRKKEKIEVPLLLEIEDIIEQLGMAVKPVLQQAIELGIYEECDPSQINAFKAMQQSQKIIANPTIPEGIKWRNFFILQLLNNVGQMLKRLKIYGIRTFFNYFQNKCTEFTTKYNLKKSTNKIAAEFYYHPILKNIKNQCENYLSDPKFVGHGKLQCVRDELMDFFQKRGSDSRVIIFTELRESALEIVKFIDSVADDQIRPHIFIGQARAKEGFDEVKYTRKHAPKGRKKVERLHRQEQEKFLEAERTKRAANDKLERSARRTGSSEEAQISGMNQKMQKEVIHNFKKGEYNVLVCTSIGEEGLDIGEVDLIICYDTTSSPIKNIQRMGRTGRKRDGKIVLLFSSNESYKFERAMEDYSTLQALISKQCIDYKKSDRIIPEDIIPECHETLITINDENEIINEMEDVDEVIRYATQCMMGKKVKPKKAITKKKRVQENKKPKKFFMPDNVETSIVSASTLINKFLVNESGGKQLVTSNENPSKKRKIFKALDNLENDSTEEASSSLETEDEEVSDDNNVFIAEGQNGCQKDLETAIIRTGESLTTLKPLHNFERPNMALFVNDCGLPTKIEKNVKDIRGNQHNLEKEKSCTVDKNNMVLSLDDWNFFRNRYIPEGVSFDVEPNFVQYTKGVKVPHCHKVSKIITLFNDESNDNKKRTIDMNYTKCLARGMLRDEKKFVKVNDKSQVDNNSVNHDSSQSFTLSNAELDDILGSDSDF
GBD-Mph1(751–810): residues 751-810 of P40562
GBD-Mph1-Ct (amino acids 762–993): residues 762-993 of P40562
GAD-Mph1-Ct (amino acids 762–993) T776E (P40562, form named): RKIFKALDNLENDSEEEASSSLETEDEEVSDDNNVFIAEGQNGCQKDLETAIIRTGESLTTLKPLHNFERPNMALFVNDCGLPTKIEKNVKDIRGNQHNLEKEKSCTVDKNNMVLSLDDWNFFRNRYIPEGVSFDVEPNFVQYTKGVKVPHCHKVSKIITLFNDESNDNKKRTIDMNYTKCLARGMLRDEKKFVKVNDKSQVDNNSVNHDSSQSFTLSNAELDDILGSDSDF
GAD-Mph1-Ct (amino acids 762–993) T776D T785D (P40562, form named): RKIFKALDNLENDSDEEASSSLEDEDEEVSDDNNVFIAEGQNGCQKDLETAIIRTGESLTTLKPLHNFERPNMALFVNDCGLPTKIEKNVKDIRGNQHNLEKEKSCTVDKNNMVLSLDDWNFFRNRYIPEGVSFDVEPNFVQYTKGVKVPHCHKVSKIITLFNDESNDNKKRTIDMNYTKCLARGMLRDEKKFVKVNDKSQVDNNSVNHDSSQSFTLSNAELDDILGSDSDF
GAD-Mph1-Ct (amino acids 762–993) T776E T785E (P40562, form named): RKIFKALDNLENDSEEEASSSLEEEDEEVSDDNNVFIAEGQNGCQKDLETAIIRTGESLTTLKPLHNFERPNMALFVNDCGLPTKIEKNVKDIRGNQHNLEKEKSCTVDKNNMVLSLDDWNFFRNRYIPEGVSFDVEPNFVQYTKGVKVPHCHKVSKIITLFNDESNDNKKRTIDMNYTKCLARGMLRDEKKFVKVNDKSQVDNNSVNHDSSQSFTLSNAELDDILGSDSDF
GAD-Mph1-Ct (amino acids 762–993) T785E (P40562, form named): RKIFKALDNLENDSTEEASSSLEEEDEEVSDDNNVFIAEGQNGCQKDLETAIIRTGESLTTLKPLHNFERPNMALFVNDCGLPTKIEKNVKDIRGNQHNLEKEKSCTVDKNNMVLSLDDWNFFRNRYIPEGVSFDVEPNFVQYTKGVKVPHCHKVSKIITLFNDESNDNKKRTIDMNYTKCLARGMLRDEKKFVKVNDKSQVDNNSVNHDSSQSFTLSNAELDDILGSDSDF
GAD-Mph1-Ct (amino acids 762–993) T776D (P40562, form named): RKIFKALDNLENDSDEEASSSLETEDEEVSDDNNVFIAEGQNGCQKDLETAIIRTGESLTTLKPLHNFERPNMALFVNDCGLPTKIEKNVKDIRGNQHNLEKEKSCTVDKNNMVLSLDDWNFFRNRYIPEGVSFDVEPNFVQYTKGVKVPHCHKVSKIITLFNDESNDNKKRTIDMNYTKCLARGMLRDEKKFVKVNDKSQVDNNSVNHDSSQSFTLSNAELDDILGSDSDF
GBD-Mph1-Ct (amino acids 762–993) T776AT785A (P40562, form named): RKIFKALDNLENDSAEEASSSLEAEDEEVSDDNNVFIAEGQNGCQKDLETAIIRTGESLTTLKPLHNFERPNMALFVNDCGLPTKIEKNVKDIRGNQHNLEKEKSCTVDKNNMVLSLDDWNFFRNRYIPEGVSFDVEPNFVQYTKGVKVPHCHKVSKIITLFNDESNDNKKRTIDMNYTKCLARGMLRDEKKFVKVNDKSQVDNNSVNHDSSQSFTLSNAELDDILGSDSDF
GAD-Mph1-Ct (amino acids 762–993) T785D (P40562, form named): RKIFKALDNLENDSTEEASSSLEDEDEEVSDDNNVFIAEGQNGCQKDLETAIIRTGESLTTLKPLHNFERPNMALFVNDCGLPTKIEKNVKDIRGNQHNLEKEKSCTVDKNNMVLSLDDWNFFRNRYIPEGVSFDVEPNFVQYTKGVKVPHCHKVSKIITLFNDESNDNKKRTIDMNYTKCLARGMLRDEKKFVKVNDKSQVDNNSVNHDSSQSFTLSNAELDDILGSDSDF
GBD-Mph1-Ct (amino acids 762–993) T785A (P40562, form named): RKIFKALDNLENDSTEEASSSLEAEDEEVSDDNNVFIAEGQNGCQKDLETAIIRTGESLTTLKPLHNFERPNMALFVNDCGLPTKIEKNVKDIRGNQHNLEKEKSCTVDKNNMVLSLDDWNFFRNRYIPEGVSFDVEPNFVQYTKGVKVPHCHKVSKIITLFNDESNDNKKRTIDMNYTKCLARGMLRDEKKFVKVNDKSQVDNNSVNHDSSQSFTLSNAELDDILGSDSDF
GBD-Mph1-Ct (amino acids 762–993) T776A (P40562, form named): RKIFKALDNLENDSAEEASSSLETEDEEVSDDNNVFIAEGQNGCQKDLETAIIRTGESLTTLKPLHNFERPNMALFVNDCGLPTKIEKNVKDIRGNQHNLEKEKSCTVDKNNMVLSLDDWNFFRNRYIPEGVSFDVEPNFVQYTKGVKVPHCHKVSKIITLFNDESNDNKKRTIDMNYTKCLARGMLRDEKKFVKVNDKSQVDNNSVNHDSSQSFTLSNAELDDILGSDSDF
UniProt P22336: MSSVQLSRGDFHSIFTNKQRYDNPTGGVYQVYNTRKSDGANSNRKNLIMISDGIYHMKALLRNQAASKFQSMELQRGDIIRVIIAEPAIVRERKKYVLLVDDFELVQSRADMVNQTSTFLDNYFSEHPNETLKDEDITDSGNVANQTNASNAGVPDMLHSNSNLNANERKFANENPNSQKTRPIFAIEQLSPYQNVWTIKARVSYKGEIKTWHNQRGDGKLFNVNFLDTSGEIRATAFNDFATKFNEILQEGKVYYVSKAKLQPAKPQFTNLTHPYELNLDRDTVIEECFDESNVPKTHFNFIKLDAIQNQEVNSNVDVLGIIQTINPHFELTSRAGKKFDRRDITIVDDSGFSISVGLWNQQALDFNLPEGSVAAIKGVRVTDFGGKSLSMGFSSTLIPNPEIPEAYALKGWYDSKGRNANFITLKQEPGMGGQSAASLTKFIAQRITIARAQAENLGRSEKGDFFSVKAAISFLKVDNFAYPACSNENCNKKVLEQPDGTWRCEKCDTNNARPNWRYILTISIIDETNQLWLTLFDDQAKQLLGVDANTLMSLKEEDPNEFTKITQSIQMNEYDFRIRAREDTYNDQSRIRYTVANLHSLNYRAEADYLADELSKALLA

[2] = molecular target: T2, GBD-Fkh1-FHA (amino acids 50–202) (S. cerevisiae) (UniProt P40466); assay: two-hybrid; directed assays in strain PJ69-4A: GBD-Fkh1 forms as bait, GAD fusions as prey; reporter genes HIS3 and ADE2, growth on media lacking histidine or both adenine and histidine, compared with the GAD alone
T2 sequence: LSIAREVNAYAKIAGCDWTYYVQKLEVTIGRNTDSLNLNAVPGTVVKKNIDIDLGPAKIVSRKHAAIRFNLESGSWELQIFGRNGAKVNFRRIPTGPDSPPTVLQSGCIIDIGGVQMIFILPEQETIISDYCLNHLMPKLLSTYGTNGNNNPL

[3] = molecular target: GBD-Mph1-Ct (amino acids 762–993) T776AT785A (S. cerevisiae) (UniProt P40562); assay: two-hybrid; directed assays in strain PJ69-4A: GBD-Mph1 regions and mutants as bait, Fkh1-FHA or known Mph1 partners as prey; growth on selective media compared with the GAD alone
[4] = molecular target: T3, GBD-Fkh1-FHA (amino acids 50–202) R80A (S. cerevisiae) (UniProt P40466); assay: two-hybrid; directed assays in strain PJ69-4A: GBD-Fkh1 forms as bait, GAD fusions as prey; reporter genes HIS3 and ADE2, growth on media lacking histidine or both adenine and histidine, compared with the GAD alone
T3 sequence: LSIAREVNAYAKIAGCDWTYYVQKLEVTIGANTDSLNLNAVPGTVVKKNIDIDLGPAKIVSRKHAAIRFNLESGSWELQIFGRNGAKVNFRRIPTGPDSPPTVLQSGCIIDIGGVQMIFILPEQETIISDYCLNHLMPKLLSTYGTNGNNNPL

[5] = molecular target: T2, GBD-Fkh1-FHA (amino acids 50–202) (S. cerevisiae); assay: as above; remark: listed apart in the source
[6] = molecular target: T4, GBD fusion of full-length Fkh1 (S. cerevisiae) (UniProt P40466); assay: as above
T4 sequence: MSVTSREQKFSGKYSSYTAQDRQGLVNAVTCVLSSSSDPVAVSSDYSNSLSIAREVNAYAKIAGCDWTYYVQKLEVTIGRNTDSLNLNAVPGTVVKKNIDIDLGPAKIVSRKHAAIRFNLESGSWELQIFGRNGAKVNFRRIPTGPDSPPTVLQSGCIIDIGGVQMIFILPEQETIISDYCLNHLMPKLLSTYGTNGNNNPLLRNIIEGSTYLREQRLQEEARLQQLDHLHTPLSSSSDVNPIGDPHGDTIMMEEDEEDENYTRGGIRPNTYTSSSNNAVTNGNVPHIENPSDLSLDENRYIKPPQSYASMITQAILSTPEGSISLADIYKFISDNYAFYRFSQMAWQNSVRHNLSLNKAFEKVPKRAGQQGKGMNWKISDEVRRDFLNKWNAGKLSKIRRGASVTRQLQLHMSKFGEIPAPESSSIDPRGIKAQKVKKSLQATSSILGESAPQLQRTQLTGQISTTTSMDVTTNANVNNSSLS

[7] = molecular target: Mph1-FLAG (S. cerevisiae) (UniProt P40562); assay: co-IP; yeast cell extracts in CoIP buffer (50 mM HEPES pH 7.5, 140 mM NaCl, 1 mM EDTA, 1% TX-100); precipitated with ANTI-FLAG M2 Affinity Gel, blotted with anti-FLAG or anti-Fkh1
[8] = molecular target: GBD-Mph1-Ct (amino acids 762–993) T785A (S. cerevisiae) (UniProt P40562); assay: two-hybrid; directed assays in strain PJ69-4A: GBD-Mph1 regions and mutants as bait, Fkh1-FHA or known Mph1 partners as prey; growth on selective media compared with the GAD alone
[9] = molecular target: GBD-Mph1-Ct (amino acids 762–993) (S. cerevisiae) (UniProt P40562); assay: as above
[10] = molecular target: GBD-Mph1-Ct (amino acids 762–993) T776AT785A (S. cerevisiae) (UniProt P40562); assay: as above; remark: listed apart in the source
[11] = molecular target: GBD-Mph1-Ct (amino acids 762–993) T776A (S. cerevisiae) (UniProt P40562); assay: as above
[12] = molecular target: GBD-Mph1(751–810) (S. cerevisiae) (UniProt P40562); assay: as above

binding [1]: no binding
Molecule: mph1-2TA-FLAG (mph1-T776AT785A) (from UniProt P40562 1-993)

binding [2]: binds
Molecule: GAD-Mph1-Ct (amino acids 762–993) T776E (from UniProt P40562 762-993) (domain or fragment)

binding [2]: no binding
Molecule: GAD-Mph1-Ct (amino acids 762–993) T776D T785D (from UniProt P40562 762-993) (domain or fragment)

binding [1]: binds
Molecule: Mph1-FLAG (from UniProt P40562 1-993)

binding [2]: no binding
Molecule: GAD-Mph1-Ct (amino acids 762–993) T776E T785E (from UniProt P40562 762-993) (domain or fragment)

binding [2]: binds
Molecule: GAD-Mph1-Ct (amino acids 762–993) T785E (from UniProt P40562 762-993) (domain or fragment)

binding [2]: binds
Molecule: GAD-Mph1-Ct (amino acids 762–993) T776D (from UniProt P40562 762-993) (domain or fragment)

binding [3]: binds
Molecule: Rfa1 (two-hybrid prey) (from UniProt P22336 1-621)

binding [4]: no binding
binding [2]: binds
Molecule: GAD-Mph1-Ct (amino acids 762–993) (from UniProt P40562 762-993) (domain or fragment)

binding [2]: binds
Molecule: GAD-Mph1-Ct (amino acids 762–993) T785D (from UniProt P40562 762-993) (domain or fragment)

binding [5]: binds
B1: GAD-Ure2(84–354) (domain or fragment, UniProt P23202 84-354)
chain: HRQQQQAFSDMSHVEYSRITKFFQEQPLEGYTLFSHRSAPNGFKVAIVLSELGFHYNTIFLDFNLGEHRAPEFVSVNPNARVPALIDHGMDNLSIWESGAILLHLVNKYYKETGNPLLWSDDLADQSQINAWLFFQTSGHAPMIGQALHFRYFHSQKIASAVERYTDEVRRVYGVVEMALAERREALVMELDTENAAAYSAGTTPMSQSRFFDYPVWLVGDKLTIADLAFVPWNNVVDRIGINIKIEFPEVYKWTKHMMRRPAVIKALRGE

binding [5]: no binding
binding [6]: binds
B2: GAD-Fdo1 (YMR144W) (98–342) (domain or fragment, UniProt P40214 98-342)
chain: RKEVGTYSSPMDSAYARENMLNVLQSLVTHLNQAVSQIQQLKFKNMILTSNENNIQSRHEVEDNLQKQQFERMKCQFLLERQSLKDQLRKRENKIVKYKQKIIEKNKKLNNLAKVLNQHAISDTSQIDSFSSSVKKTPSSTTTPQEMKSDMLNTLGILATHVLKDEIDDDSGNQTILQLAAGSISNDCNTTELEITCSPEMGRTITHNRPNTKDESIQDSHGNRTLQLPKMKSFSTIDGSIKDIK

binding [7]: binds
B3: Fkh1 (endogenous, yeast cell extract) (protein, UniProt P40466 1-484)
chain: MSVTSREQKFSGKYSSYTAQDRQGLVNAVTCVLSSSSDPVAVSSDYSNSLSIAREVNAYAKIAGCDWTYYVQKLEVTIGRNTDSLNLNAVPGTVVKKNIDIDLGPAKIVSRKHAAIRFNLESGSWELQIFGRNGAKVNFRRIPTGPDSPPTVLQSGCIIDIGGVQMIFILPEQETIISDYCLNHLMPKLLSTYGTNGNNNPLLRNIIEGSTYLREQRLQEEARLQQLDHLHTPLSSSSDVNPIGDPHGDTIMMEEDEEDENYTRGGIRPNTYTSSSNNAVTNGNVPHIENPSDLSLDENRYIKPPQSYASMITQAILSTPEGSISLADIYKFISDNYAFYRFSQMAWQNSVRHNLSLNKAFEKVPKRAGQQGKGMNWKISDEVRRDFLNKWNAGKLSKIRRGASVTRQLQLHMSKFGEIPAPESSSIDPRGIKAQKVKKSLQATSSILGESAPQLQRTQLTGQISTTTSMDVTTNANVNNSSLS

binding [8]: binds
binding [9]: binds
binding [10]: no binding
binding [11]: binds
binding [12]: binds
B4: GAD fusion of Fkh1-FHA (amino acids 50–202) (domain or fragment, UniProt P40466 50-202)
chain: LSIAREVNAYAKIAGCDWTYYVQKLEVTIGRNTDSLNLNAVPGTVVKKNIDIDLGPAKIVSRKHAAIRFNLESGSWELQIFGRNGAKVNFRRIPTGPDSPPTVLQSGCIIDIGGVQMIFILPEQETIISDYCLNHLMPKLLSTYGTNGNNNPL

binding [5]: binds
B5: GAD-Gln3(20–189) (domain or fragment, UniProt P18494 20-189)
chain: VHGRSNEEPRQTGDSRSQSSGNTGENEEDIAFASGLNGGTFDSMLEALPDDLYFTDFVSPFTAAATTSVTTKTVKDTTPATNHMDDDIAMFDSLATTQPIDIAASNQQNGEIAQLWDFNVDQFNMTPSNSSGSATISAPNSFTSDIPQYNHGSLGNSVSKSSLFPYNSST

binding [10]: binds
B6: Smc5 (two-hybrid prey) (protein, UniProt Q08204 1-1093)
chain: MTSLIDLGRYVERTHHGEDTEPRSKRVKIAKPDLSSFQPGSIIKIRLQDFVTYTLTEFNLSPSLNMIIGPNGSGKSTFVCAVCLGLAGKPEYIGRSKKVEDFIKNGQDVSKIEITLKNSPNVTDIEYIDARDETIKITRIITRSKRRSDYLINDYQVSESVVKTLVAQLNIQLDNLCQFLSQERVEEFARLKSVKLLVETIRSIDASLLDVLDELRELQGNEQSLQKDLDFKKAKIVHLRQESDKLRKSVESLRDFQNKKGEIELHSQLLPYVKVKDHKEKLNIYKEEYERAKANLRAILKDKKPFANTKKTLENQVEELTEKCSLKTDEFLKAKEKINEIFEKLNTIRDEVIKKKNQNEYYRGRTKKLQATIISTKEDFLRSQEILAQTHLPEKSVFEDIDIKRKEIINKEGEIRDLISEIDAKANAINHEMRSIQRQAESKTKSLTTTDKIGILNQDQDLKEVRDAVLMVREHPEMKDKILEPPIMTVSAINAQFAAYLAQCVDYNTSKALTVVDSDSYKLFANPILDKFKVNLRELSSADTTPPVPAETVRDLGFEGYLSDFITGDKRVMKMLCQTSKIHTIPVSRRELTPAQIKKLITPRPNGKILFKRIIHGNRLVDIKQSAYGSKQVFPTDVSIKQTNFYQGSIMSNEQKIRIENEIINLKNEYNDRKSTLDALSNQKSGYRHELSELASKNDDINREAHQLNEIRKKYTMRKSTIETLREKLDQLKREARKDVSQKIKDIDDQIQQLLLKQRHLLSKMASSMKSLKNCQKELISTQILQFEAQNMDVSMNDVIGFFNEREADLKSQYEDKKKFVKEMRDTPEFQSWMREIRSYDQDTKEKLNKVAEKYEEEGNFNLSFVQDVLDKLESEIAMVNHDESAVTILDQVTAELRELEHTVPQQSKDLETIKAKLKEDHAVLEPKLDDIVSKISARFARLFNNVGSAGAVRLEKPKDYAEWKIEIMVKFRDNAPLKKLDSHTQSGGERAVSTVLYMIALQEFTSAPFRVVDEINQGMDSRNERIVHKAMVENACAENTSQYFLITPKLLTGLHYHEKMRIHCVMAGSWIPNPSEDPKMIHFGETSNYSFD

binding [5]: binds
B7: GAD-Ecm30(1005–1183) (domain or fragment, UniProt Q06673 1005-1183)
chain: SFKYEETFSHELRQFESLLDISIDECEGNTISKPTTDRLGYIRRSRGQSSVSLERTISAGSGVSTPTMALNRTKSNGSGNLMNYFFQNTAQNHFQHLRSSSSSSSITLEKTTSNSSSIRTRPNSHHVAPETNNNNSTNGNSNNSSNGGFSFFKWKWGGNNSNGGSDDTKASQRDPNVST

— article PMC4892509, “Binding of the Fkh1 Forkhead Associated Domain to a Phosphopeptide within the Mph1 DNA Helicase Regulates Mating-Type Switching in Budding Yeast” (PLoS Genetics, 2016)
